One data set relates to human lung cancer 95D. The data set is described as follows: DX1002 combined with CBP against human lung cancer 95D transplanted in nude mice. Type of data set: in vivo. Particulars: DX1002 400 mg/kg ig × 14, CBP 10 mg/kg ip × 5. The method, then:
Group 2: CBP 10 mg/kg/day (ip×10 days, injected every other day)
29 days after inoculation (d17), all animals were sacrificed and weighed.

The test system of the next data set is mouse melanoma B16. Particulars: for RTV / Tumor inhibitory rate: CTX 60 × 1, DX1002 5 × 13; for Tumor inhibitory rate: based on tumor weight. As for the experimental part:
The administration volume of cyclophosphamide injection was per 10 g mouse via intraperitoneal injection. For the single use or the combined use of cyclophosphamide, on the next day of inoculation, cyclophosphamide was injected once. […] For the combination group of DX1002 and cyclophosphamide, DX1002 was firstly injected to the left side of peritoneal cavity, and then cyclophosphamide was injected to the right side of peritoneal cavity.
Each group includes 10 mice.

For a further data set, the system named is mouse liver cancer H22. Nature of the data set: DX1002 singly used and combined with adriamycin against mouse liver cancer H22.
A further data set has as its system human colon cancer HT-29. Nature of the data set: DX1002 combined with BON against human colon cancer HT-29 transplanted in nude mice. The conditions noted are these: BON 1 × 7, DX1002 200 × 14; for RTV (d 15): relative tumor volume.
Another data set deals with human lung cancer A549. Nature of the data set: DX1002 combined with paclitaxel against human lung cancer A549 transplanted in nude mice. Particulars: for Tumor inhitory rate / RTV (d 21): paclitaxel 5 × 11, DX1002 200 × 21; for RTV (d 21): relative tumor volume.
The test system of another data set is human liver cancer huh-7. The data set is described as follows: DX1002 combined with sorafenib against human liver cancer huh-7 transplanted in nude mice. The conditions noted are these: for Terminal body weight: nude mice with huh-7 tumor, sorafenib 20 mg/kg × 11 po, DX1002 100 mg/kg × 11 po, combination printed 10 × 11 + 100 × 11; for Terminal body weight / RTV (d 21): x ± SD; for RTV (d 21): relative tumor volume; for RTV (d 21) / Tumor inhibitory rate: sorafenib 20 × 11, DX1002 100 × 11 po.

The test system of data set [1] is human ovarian cancer A2780. The data set is described as follows: DX1002 combined with paclitaxel against human ovarian cancer A2780 transplanted in nude mice. The conditions noted are these: for Tumor inhibitory rate / RTV (d 21): paclitaxel 10 × 11, DX1002 10 × 11; for RTV (d 21): relative tumor volume.
Another data set deals with mouse Lewis lung cancer. Nature of the data set: DX1002 singly used and combined with docetaxel against mouse Lewis lung cancer. Particulars: TXT 5 × 5, DX1002 1600 × 10; based on tumor weight; listed as docetaxel.
Where [2] appears, read: adriamycin 3 × 6, DX1002 800 × 11.

Where “and” joins values, the source holds several entries; their conditions need not be identical. Identical values can stand only once. Like-named read-outs stand apart in the source and are kept apart here.

With `N.N.O=C([O-])C1(C(=O)[O-])CCC1.[Pt+2]` [CBP, Carboplatin], the Tumor inhibitory rate in the data set with human lung cancer 95D came out at 41.85%.
For the compound `O=P1(N(CCCl)CCCl)NCCCO1` (stereo not drawn) [CTX, cyclophosphamide], in the data set on mouse melanoma B16, the RTV amounted to 1.38 ± 0.49 and the Tumor inhibitory rate was 57.80%. For the same compound, the Tumor inhibitory rate in the data set on mouse melanoma B16 (listed as cyclophosphamide) is listed as 44.04%. Besides, the Terminal body weight in the data set on mouse melanoma B16 (mice with B16 tumor, CTX 60 mg/kg × 1, DX1002 5 mg/kg × 13) stood at 23.03 ± 1.34 g.
Take `COc1ccc(/C=C(/C(=O)O)c2cc(OC)c(OC)c(OC)c2)c(O)c1O` [DX1002, (E)-3-(2′,3′-dihydroxyl-4′-methoxylphenyl)-2-(3″,4″,5″-trimethoxylphenyl)-2-acrylic acid]: the Tumor inhibitory rate is 56.65% in the data set with human lung cancer 95D; 44.04% with mouse melanoma B16; 57.67% and 57.02% in the data set on mouse liver cancer H22 (adriamycin 3 × 6, DX1002 800 × 11, based on tumor weight); 58.81% with human liver cancer huh-7; 55.51% and 54.53% in data set [1]. For the same compound, the RTV in the data set with mouse melanoma B16 is reported as 1.83 ± 0.72. Also, in the data set with mouse liver cancer H22 (setting [2]), the “Tumor weight (g) x ± SD” value was found to be 1.99 ± 0.53 g. Also, the Tumor inhibitory with human colon cancer HT-29 was 48.87% and 50.31%. Moreover, the “RTV (d 15)” value in the data set with human colon cancer HT-29 is reported as 11.2985. The Tumor inhitory rate with human lung cancer A549 is on record as 51.96%. The figures for the “RTV (d 21)” value (in the data set with human lung cancer A549 (x ± SD); in the data set with human liver cancer huh-7; in data set [1] (x ± SD)) were 4.90 ± 0.69, 3.93 ± 2.16 and 18.89 ± 6.10, respectively. For the same compound, the Terminal body weight in the data set on human liver cancer huh-7 worked out at 22.8 ± 1.0 g.
Consider `CNC(=O)c1cc(Oc2ccc(NC(=O)Nc3ccc(Cl)c(C(F)(F)F)c3)cc2)ccn1` [Sorafenib, sorafenib], for which, in the data set on human liver cancer huh-7, the Terminal body weight was determined as 22.4 ± 0.5 g, the “RTV (d 21)” value was found to be 4.71 ± 1.53 and the Tumor inhibitory rate was 50.63%. Moreover, in the data set with human liver cancer huh-7 (listed as sorafenib), the Tumor inhibitory rate came out at 58.81%.
With `CC(=O)O[C@@]12CO[C@@H]1C[C@H](O)[C@@]1(C)C(=O)[C@H](O)C3=C(C)[C@@H](OC(=O)[C@H](O)[C@@H](NC(=O)OC(C)(C)C)c4ccccc4)C[C@@](O)([C@@H](OC(=O)c4ccccc4)[C@H]21)C3(C)C` [TXT, docetaxel], the Tumor inhibitory rate with mouse Lewis lung cancer came to 53.65%.
In the case of `COc1cccc2c1C(=O)c1c(O)c3c(c(O)c1C2=O)C[C@@](O)(C(=O)CO)C[C@@H]3O[C@H]1C[C@H](N)[C@H](O)[C@H](C)O1` [adriamycin], the “Tumor weight (g) x ± SD” value with mouse liver cancer H22 (setting [2]) is reported as 1.96 ± 0.47 g. Moreover, the “Body weight (g) x ± SD” value in the data set with mouse liver cancer H22 (mice with H22 tumor, adriamycin 3 mg/kg × 6, DX1002 800 mg/kg × 11 oral) is given as 21.4 ± 3.5 g.
Take `CC(=O)O[C@H]1C(=O)[C@@]2(C)[C@H]([C@H](OC(=O)c3ccccc3)[C@]3(O)C[C@H](OC(=O)[C@H](O)[C@@H](NC(=O)c4ccccc4)c4ccccc4)C(C)=C1C3(C)C)[C@]1(OC(C)=O)CO[C@@H]1C[C@@H]2O` [paclitaxel, Paclitaxel]: the Terminal weight with human lung cancer A549 (nude mice with A549 tumor, paclitaxel 5 mg/kg × 11 ip, DX1002 200 mg/kg × 21 ig, x ± SD) is listed as 23.8 ± 1.2 g. Moreover, in the data set with human lung cancer A549, the Tumor inhitory rate is reported as 61.08%. Besides, the “RTV (d 21)” value in the data set with human lung cancer A549 (x ± SD) worked out at 3.97 ± 0.90; in data set [1] (x ± SD), 18.48 ± 3.58. The Terminal body weight in data set [1] (nude mice with A2780 tumor, paclitaxel 10 mg/kg × 11, DX1002 10 mg/kg × 11, x ± SD) turned out to be 22.0 ± 0.6 g. Besides, the Tumor inhibitory rate in data set [1] is given as 54.53%; in data set [1] (listed as Paclitaxel) it was 55.51%.
Take bleomycin hydrochloride [BON]: the Tumor inhibitory in the data set with human colon cancer HT-29 (hydrochloride) is 48.87%; in the data set with human colon cancer HT-29 (listed as bleomycin hydrochloride, hydrochloride), 5.31%. Moreover, the “RTV (d 15)” value in the data set with human colon cancer HT-29 was 8.167.

These data come from patent publication US11033519B2, “Drug combination with antitumor effects” (DONGGUAN ANHAO PHARMACEUTICAL CO., LTD., priority 2016, dated 2021).
